According to the supplement of paper PMC11417369:
± gives the standard deviation of the averaged measurements. Some of the results follow.

These sequences were tested on PfAP2-EXP AP2 domain (GST-tagged) (assay: gcPBM binding intensity (ln(normalized median fluorescence intensity)); higher = stronger DNA binding).
In short: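 After 1 h on an Agilent 4 × 180k array of primer-extended double-stranded 36-bp intergenic genomic probes and negative controls, bound GST-tagged P. falciparum DNA-binding domains were detected with Alexa488 anti-GST antibody and scanned at 488 nm. The domains had been expressed in E. coli, and binding took place in 1× PBS with 1% milk, 0.2 mg/ml BSA, 0.5% salmon testes DNA and 0.03% Triton X-100. Binding intensity is the highest Masliner-normalised natural-log median intensity across replicate spots of either probe orientation.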

Sequence | gcPBM binding intensity (ln)
ATTGTATATAAATGAGTGCATACTATGTTGTTCTTA [GTGCAC_site9678] | 8.66 ± 0.14
ATTATCTCCGCCATGTGGACACATATAAGACATTTT [XGTACX_site2889] | 8.91 ± 0.38
AGGCTACGAATAGAATGTACCCGAAATAAGGAATAT [XGTACX_site6012] | 8.74 ± 0.47
ATATAAGCGTATACATGTACATATATATCTTTGTAA [XGTACX_site2742] | 8.72 ± 0.37
TATGTAAATCTCTTAAGAATTCGCTATATCTCTTTT [CACACA_negctrl_site1180] | 8.41 ± 0.49
ATCTATGAAAAAGGTACATGCAATAAAGAAACATAT [TGCATGCA_site805] | 9.54 ± 0.45
TTATAATCAATGAATACACACATATATTTCATTAAT [CACACA_site5909] | 8.28 ± 0.47
TAATAATAGAGACACACACACATAGACATATAAATA [CACACA_site6729] | 8.83 ± 0.51
TTATACTATTTTTATACATGCATTTCTATATATTTT [TGCATGCA_site316] | 9.3 ± 0.28
TTCAAAATAAAAAATTCACACACATATATATATATA [CACACA_site8653] | 10 ± 0.45
ATTTATTAAATTTATAGTACTCAAAGATTTTTATTT [XGTACX_site6661] | 8.43 ± 0.38
AAATAAAACAATTAACGTACAAGCATATATATATAT [XGTACX_site8508] | 10.1 ± 0.14
AAATAAAAAAAAATAGCACACATAAATATATTATAT [CACACA_site8155] | 8.66 ± 0.33
TATGTATAATTATTTTGTACTTATTAAATTTTTTTT [XGTACX_site5413] | 8.23 ± 0.42
TATATATATATTATATGTACACAAGGAAATATGCAT [XGTACX_site5637] | 9.34 ± 0.028
AAAAAAAAAAAAGTTACACACAAATAAAATATTTGG [CACACA_site694] | 8.24 ± 0.45
AAGAAAAATTTAAACTGTACTTGTTTTCCAATGAAC [XGTACX_site4443] | 8.66 ± 0.16
ATTATTCATTTATGTAGTACATTTTAATACATTTAA [XGTACX_site3599] | 8.53 ± 0.39
ATAAAAAAAAATAAATGTACAAATTAACAAAATAAT [XGTACX_site5048] | 8.79 ± 0.48
AATCACCAAATATGTACACACCTTAACATGTTTATA [CACACA_site5180] | 8.95 ± 0.33
TGTGAATAAATAAGCACACATAAACCCATATATAAA [CACACA_site4103] | 8.76 ± 0.49
ATCTAAACAAATAATACACACAATAAAATAGGAAGA [CACACA_site4072] | 8.92 ± 0.48
TAATATTTACATATTACACACACGTATTATTAAATA [CACACA_site6340] | 8.33 ± 0.41

Sequence | gcPBM binding intensity (ln)
TATTTTTTAAAAATGGGTACACATAAATAAATAAAT [XGTACX_site7643] | 8.87 ± 0.4
ATACACACTCAAAAAAGTACTTAACTACATGAATTG [XGTACX_site6366] | 8.64 ± 0.15
CTCAAAGGAATATTCACACATAAATTATAGACTACA [CACACA_site6050] | 8.68 ± 0.77
TAATTATATTCACTTGCTATATAAATTATATATATT [CACACA_negctrl_site526] | 8.36 ± 0.43
AAGAAAAAAATATATGTTTATTTACTTTAATAATTT [TGCATGCA_negctrl_site168] | 8.04 ± 0.39
GTATATATATATATATGCAAATGTATAAATCTACAT [CACACA_negctrl_site546] | 8.46 ± 0.36
TATATATAAATATGCTGTACGTTTTAATACGTTAAG [XGTACX_site2378] | 8.44 ± 0.13
GATAAATTAAAACACACACACATATATATATATATA [CACACA_site3962] | 10.1 ± 0.39
AAAAAAATAGTCTTCTTGCACTTTTTAATTTATTTT | 8.38 ± 0.19
TTATAATAAAATGAATATATATAATTTAAAATATTT [CACACA_negctrl_site1651] | 8.14 ± 0.45
AAAAAAAGTTATATTACACACTTTATTCGTTAACTT [CACACA_site3013] | 8.44 ± 0.42
ATATTTATGAAGTTCACACATATATATATATATATA [CACACA_site5954] | 10.3 ± 0.52
ACAACAATATTTGAATGTACTCTATTTTCGTTGTTC [XGTACX_site593] | 8.69 ± 0.52
TTTCTTCATTTTTTCACACATAAGAAAATATAATCA [CACACA_site4275] | 8.46 ± 0.46
AAGGAAAACAATAGGTGTACCAAACGTCCTAGGAAC [XGTACX_site5732] | 8.96 ± 0.45
TAAAAAAATAAAATTACACACATATATAAATATATA [CACACA_site2620] | 8.2 ± 0.28
AAAAAAGCAATATGATGTACATTTACTTTGTGAAAG [XGTACX_site4450] | 8.54 ± 0.46
AAATATTATAAAAAGGTGCATTTTTATTATATGAGT | 8.81 ± 0.085
TTTTGTTATAATAAAGTGCATTTAGTCGGGTTACAA [GTGCAC_site9779] | 8.66 ± 0.13
ATATATAAATATATTTGTACATATAATATGTATTAT [XGTACX_site8820] | 8.49 ± 0.35
CTAGGTATGCTTTAAACATGCAAAAATACAAATTAC [TGCATGCA_site239] | 8.88 ± 0.39
ATATATGTTTTTATATGTACTTATAATGTGTGTATA [XGTACX_site5165] | 8.62 ± 0.38
AATTTAAAAAAAATCACACACAGAAAAAAAAAAAAA [CACACA_site2322] | 8.46 ± 0.54

Sequence | gcPBM binding intensity (ln)
TTCTGACCAATGCTATAAAATAATACAAAAGAAAAA [GTGCAC_negctrl_site3] | 8.47 ± 0.54
TGAAGAGGAAACAAACAAAATGAATAATTAAAAAGG [CACACA_negctrl_site1601] | 8.76 ± 0.48
TATATCCACATTTTTAGTACTTAAAAATAAATAAAC [XGTACX_site3826] | 8.56 ± 0.21
ATATAACATAGACACACACACATATAAATATATTAT [CACACA_site7865] | 8.7 ± 0.41
CTTTATAAAATAAGAGTGCGTTATATTGAATTGTAT [GTGCAC_site9390] | 8.685 ± 0.064
ATATAAGATTTAAGAAGTACAATTATACAGTAGATC [XGTACX_site7501] | 8.79 ± 0.32
GAATAAATTAAAAATGCACACTTTGATGGGTACATT [CACACA_site5220] | 8.26 ± 0.16
ACGTTTTATAATTAATGTACAAATATTAAAATTGCA [XGTACX_site7869] | 8.65 ± 0.23
TTATTTATTTTAAATTCACACATCGTGCTATTATAT [CACACA_site5003] | 8.31 ± 0.28
TCATATATTTATGTATGTACATATATATATAGATTA [XGTACX_site380] | 8.16 ± 0.38
TATGAATGGTTAAGTACACACATATTAAGATATGTA [CACACA_site5852] | 8.22 ± 0.35
TATATTTGCAGTAATAATAATTATTATAAAAGATAA [XGTACX_negctrl_site547] | 8.66 ± 0.4
AAAAATATAATATAATGTACACAAAAAAAAAAATTC [XGTACX_site3657] | 8.62 ± 0.49
TTTTTATAACGTAATAAATAAAACGTCTATACTATA [XGTACX_negctrl_site176] | 8.34 ± 0.45
TAAAGATATTATTTTTGTACATATTGATATAATGAA [XGTACX_site6571] | 8.29 ± 0.52
TATATTATTATAATTTGTACATATCTAATTATATAT [XGTACX_site5342] | 8.44 ± 0.49
AATTAGACATAATATACACACATATATTATAGATAT [CACACA_site7297] | 8.43 ± 0.34
AATGATAATATTTCCTTCTTTTTTACTTCTTTCTTT [CACACA_negctrl_site776] | 8.73 ± 0.58
AAAATGGTTTATAAATGTACATATATTATATATAAC [XGTACX_site7959] | 8.68 ± 0.38
CCTATCCAGACATATACACACATATCTATTTATATA [CACACA_site5001] | 8.73 ± 0.43
TTTACTTTCCCAAGTTGTACTGCTTCTAAGCTTTTT [XGTACX_site2708] | 8.78 ± 0.54
TATAAAAAATAATACACACACATGGCGACAAAATAA [CACACA_site2420] | 9.07 ± 0.45
CATATAAAATAATTCACACAAATATACAAATACCCA [CACACA_site5340] | 8.64 ± 0.5

Sequence | gcPBM binding intensity (ln)
TATTTAATTTTTAAATGTACATATAAAATAATATAT [XGTACX_site2422] | 8.62 ± 0.4
AAAAAAAATTTCTTCTGTACGCATAAATTTTTATTA [XGTACX_site8721] | 8.54 ± 0.26
TTTTTCAGAAAAGAAACACACATATATATATTTATA [CACACA_site2372] | 8.46 ± 0.4
ATTATTTTTTTTGAAGTGCAATATTATTTTTAATCA | 8.45 ± 0.18
TATATTTTTATGTGTGTGCACAAAATAACAAAATAT [GTGCAC_site9596] | 9.03 ± 0.014
CAATTCAATATATATACACACACACTATTAATAATT [CACACA_site9256] | 8.52 ± 0.41
TATACTACCCAGAGCTGTACAAAATAATAATAAGTT [XGTACX_site1045] | 8.84 ± 0.52
ATGGTTATATTTGAAGTGCAAAAAAAAATATATGTA | 8.9 ± 0.35
ATGTGGATTTTATAATGTACATATGATATTATTTTG [XGTACX_site7930] | 8.43 ± 0.36
GTTAAGTGGATATATACACACATATGCAATACATGA [CACACA_site7427] | 8.81 ± 0.5
ATTCCTTTATTATCACGTACTTATAAAATATAGTAT [XGTACX_site7498] | 9.01 ± 0.38
TTTTTCATTTAGCTTTTACACACTATATATTATTGA [CACACA_site7888] | 8.85 ± 0.4
TTTTAATAAATCATTTTCCTAATATTTATATTTGCT [TGCATGCA_negctrl_site232] | 8.2 ± 0.13
TTAAATAAAATAAAAACATGCACACTTTATTTTTTT [TGCATGCA_site719] | 8.5 ± 0.24
TTATATATATATTGTTCACACATAATATAAATATTT [CACACA_site5835] | 8.21 ± 0.32
ATAAACAGATAAAAGGGTACACACATATATACATGT [XGTACX_site452] | 8.84 ± 0.36
CTCTTTTCTTATAATACACACAGTAATATTTATATA [CACACA_site6824] | 8.81 ± 0.28
AATAAAAAAAATTTCTGTACATATATTTATTATATA [XGTACX_site1883] | 8.28 ± 0.41
CAAACCCACCAACACACACACACAAAAATGATTAAA [CACACA_site2432] | 8.49 ± 0.68
GAAGATATATAATAATTCATAGTTTTTTAATTTAAA [TGCATGCA_negctrl_site295] | 8 ± 0.52
